Reference: PubChem BioAssay AID1476 (National Center for Advancing Translational Sciences (NCATS), 2009)
About 4,500 (2.2%) of roughly 200,000 compounds were called active. Inconclusive results, whose numbers are uncertain, are shown with a selection of clear calls. Calls follow the shape of the dose curve; as a rule, active = well fitted inhibition curve with a large enough effect; inconclusive = small, poorly fitted or top-dose-only effect, or effect the other way; inactive = flat fitted curve, though single readings scatter. A potency beside an inconclusive call is a rough fit, not a confirmed value.

Biological target: Cruzipain (Trypanosoma cruzi) (UniProt P25779)
Experiment: qHTS Assay for Promiscuous and Specific Inhibitors of Cruzain (without detergent); also: nearly all actives have a fitted effect of over 40% in size;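 as to max response, negative = inhibition: plate controls were enzyme without inhibitor for no effect and buffer without enzyme for full effect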
Conditions: purified cruzain, Z-FR-AMC fluorescence, no detergent
Outline: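 Purified cruzain at 1.5 nM, pre-incubated 15 min with compound at room temperature in 100 mM sodium acetate pH 5.5, 5 mM DTT, 0.00005% Triton X-100. Reaction started with 2 uM Z-FR-AMC; AMC fluorescence increase over 60 s gives rate.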
Potency is read from the fitted curve at half-maximal effect; tags tell the direction and shape of the fitted curve.

Sequence of UniProt P25779 (P25779 whole entry, looked up): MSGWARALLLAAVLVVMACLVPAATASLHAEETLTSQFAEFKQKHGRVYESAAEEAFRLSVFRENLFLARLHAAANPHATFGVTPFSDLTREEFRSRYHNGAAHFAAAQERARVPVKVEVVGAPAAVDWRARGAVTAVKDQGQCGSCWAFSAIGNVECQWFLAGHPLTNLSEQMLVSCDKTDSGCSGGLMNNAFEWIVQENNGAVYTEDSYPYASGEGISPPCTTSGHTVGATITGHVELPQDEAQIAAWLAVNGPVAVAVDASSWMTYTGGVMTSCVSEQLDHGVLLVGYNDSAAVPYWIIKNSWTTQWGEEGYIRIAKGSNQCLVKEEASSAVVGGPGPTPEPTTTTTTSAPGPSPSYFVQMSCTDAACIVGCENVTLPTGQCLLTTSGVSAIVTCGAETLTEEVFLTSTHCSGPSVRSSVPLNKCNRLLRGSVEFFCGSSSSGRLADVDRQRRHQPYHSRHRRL

| SMILES | max response, negative = inhibition | Potency |
| --- | --- | --- |
| CC1=C(C(=O)Nc2ccc(Br)cc2)C(c2ccco2)NC(=O)N1 (centres undefined) | inactive: 1.41% | – |
| COc1ccc(C2=NN(C(=O)CSc3nc4ccccc4s3)C(c3ccc(OC)cc3)C2)cc1 (centres undefined) | – | inconclusive: 39.8 µM [inhibitor, single point] |
| Nc1c(-c2cccs2)cnn1-c1nc(-c2ccc(F)cc2)cs1 | inactive: -21.2% | – |
| O=C(Nc1ncc2c(n1)-c1ccccc1OC2)c1ccc(Cl)cc1Cl | – | inconclusive: 39.8 µM [inhibitor, single point] |
| CC(C)(C)C(=O)OCC(=O)C1CCC2C3CCC4=CC(=O)CCC4(C)C3CCC12C (centres undefined) | inactive: -2.37% | – |
| COc1cc(C)ccc1OCCOc1cc(C)ccc1Cl | – | active: 20 µM |
| CC(=O)OCC1=C(C(=O)O)N2C(=O)C(NC(=O)Cc3cccs3)C2SC1 (centres undefined) | – | inconclusive: 39.8 µM [activator, single point] |
| Cc1ccccc1-n1c(/C=C/c2c(C)[nH]c3ccccc23)nc2ccccc2c1=O | – | inconclusive: 39.8 µM [inhibitor, single point] |
| COC(=O)N1CCC2(CC1)CCN(c1cccc(-c3ccccc3)c1)CC2 | – | inconclusive: 39.8 µM [activator, single point] |
| CCOc1ccc(N=Cc2c(C)[nH]n(-c3nc4ccccc4[nH]3)c2=O)cc1 | – | inconclusive: 31.6 µM [activator, single point] |
| O=C(Nc1ccc(-c2noc(-c3ccccc3F)n2)cc1)c1cccs1 | – | active: 20 µM |
| O=C1CSC(c2cn(-c3ccccc3)nc2-c2cc3ccccc3oc2=O)N1Cc1ccco1 (centres undefined) | – | inconclusive: 39.8 µM [inhibitor, single point] |
| N#CCCN/N=C(\Cc1nc2ccccc2[nH]1)c1ccccc1 | inactive: -5.03% | – |
| Cc1cc(C)cc(C(=O)NC(=S)Nc2ccc3[nH]c(=O)[nH]c3c2)c1 | – | inconclusive: 39.8 µM [inhibitor, single point] |
| CCc1ccc(C2=NN(CCC(=O)NCCc3ccc(Cl)cc3)C(=O)CC2)cc1 | – | inconclusive: 25.1 µM [activator, partial curve] |
| Cc1cc(-c2csc(N)n2)c(C)n1CCc1ccccc1 | – | active: 3.98 µM |
| COC(=O)c1c(NC(=O)CN2C(=O)c3ccccc3C2=O)sc(Cc2ccc3c(c2)OCO3)c1C | – | active: 10 µM |
| CC(=O)N1CCCc2cc(S(=O)(=O)N3CCCC(C(=O)N4CCN(c5cc(C)ccc5C)CC4)C3)ccc21 (centres undefined) | – | inconclusive: 12.6 µM [activator, partial curve] |
| Cc1ccc2nc(NCCCN3CCOCC3)c(C=NCCCN3CCOCC3)c(=O)n2c1 | – | inconclusive: 31.6 µM [inhibitor, single point] |
| CCc1ccc(NC(=O)Cn2c(=O)n(CCCC(=O)NCc3ccco3)c(=O)c3ccccc32)cc1 | – | inconclusive: 39.8 µM [inhibitor, single point] |
| Cc1ccc2c(c1)-c1c(cnn1CC(=O)Nc1ccccc1C#N)CO2 | – | inconclusive: 39.8 µM [activator, single point] |
| CCOC(=O)c1ccc(N2C(=O)c3n[nH]c(-c4cccs4)c3C2c2ccc(Cl)cc2Cl)cc1 (centres undefined) | – | active: 20 µM |

| SMILES | max response, negative = inhibition | Potency |
| --- | --- | --- |
| N/C(=N\c1nc2ccccc2o1)NC(=O)c1ccccc1 | – | inconclusive: 31.6 µM [inhibitor, single point] |
| Cc1cc(C(F)F)n2nc(C(=O)Nc3sc4c(c3C#N)CCC(C)C4)nc2n1 (centres undefined) | – | inconclusive: 39.8 µM [activator, single point] |
| NS(=O)(=O)c1ccc2c(c1)C1C=CCC1C(C1CC=CCC1)N2 (centres undefined) | – | inconclusive: 39.8 µM [activator, single point] |
| O=C(CSc1cn(CC(=O)N2CCCC2)c2ccccc12)Nc1cc(C(F)(F)F)ccc1Cl | – | inconclusive: 39.8 µM [activator, single point] |
| COc1cccc(Nc2ncc3nc(-c4cc(F)cc(F)c4)c(=O)n(CCC#N)c3n2)c1 | – | inconclusive: 25.1 µM [inhibitor, partial curve, poor fit] |
| Cc1cccc(CCNC(=O)C2CCCN(S(=O)(=O)c3ccc4c(c3)oc(=O)n4C)C2)c1 (centres undefined) | inactive: 7.11% | – |
| COc1ccc(NC(=O)N2Cc3ccccc3CC2C(=O)NC(C)(C)C)cc1 (centres undefined) | inactive: -2.13% | – |
| COc1cccc(CNC(=O)c2ccc(NC(=O)N3CC(C)Sc4ccccc43)cc2)c1 (centres undefined) | – | inconclusive: 39.8 µM [inhibitor, single point] |
| O=c1cc(O)nc(SCc2ccccc2Cl)[nH]1 | – | inconclusive: 15.8 µM [inhibitor, partial curve] |
| COc1ccccc1N1CCN(C(=O)COc2ccc(Cl)cc2Br)CC1 | – | inconclusive: 31.6 µM [activator, partial curve] |
| O=C(c1ccc(CS(=O)c2ccccc2Cl)o1)N1CCN(c2cccc(Cl)c2)CC1 (centres undefined) | – | inconclusive: 31.6 µM [activator, single point] |
| O=C(Nc1ccc(Cl)cc1)Nc1ccc(N2CCCC2)c(S(=O)(=O)Nc2ccccc2Cl)c1 | – | inconclusive: 5.01 µM [inhibitor, full curve, poor fit] |
| CCOc1ccc(-c2cc3nc(C4CCN(C(=O)OC(C)(C)C)CC4)c(C(=O)Nc4ccc(C)cc4C)cn3n2)cc1 | – | inconclusive: 39.8 µM [activator, single point] |
| CS(=O)(=O)N(CC(=O)N1CCN(c2cccc(Cl)c2)CC1)c1ccccc1 | – | inconclusive: 31.6 µM [activator, single point] |
| CC(C)c1nc(N2CCN(C(=O)c3ccccc3)CC2)c(C#N)c2c1COC(C)(C)C2 | inactive: 10.7% | – |
| Cc1ccc(CNC(=O)Cn2c(=O)n(-c3cccc(Cl)c3)c(=O)c3sc4ccccc4c32)cc1 | – | active: 12.6 µM |
| Cc1c2cnn(-c3ccccc3)c(=O)c2c(C)n1CC(=O)NCc1ccccc1 | inactive: 5.23% | – |
| Cc1ccc(Cl)cc1NS(=O)(=O)c1cc2c3c(c1)CC(=O)N3CCC2 | inactive: -4.46% | – |
| COc1cc2c(c(OC)c1)C(c1cc(OC)c(OC)c(OC)c1)CC(=O)N2 (centres undefined) | inactive: 0.238% | – |
| COC(=O)[C@@]1(Cc2ccccc2)[C@H]2c3cc(C(=O)N4CCCC4)n(CCO)c3C[C@H]2CN1C(=O)c1ccccc1 | – | inconclusive: 31.6 µM [activator, single point] |
| CC1=C(C(=O)Nc2ccccc2)C(c2ccc(C)o2)n2c(s/c(=C\c3ccco3)c2=O)=N1 (centres undefined) | – | inconclusive: 39.8 µM [inhibitor, single point] |
| CCc1c(C(=O)Nc2nnc(C3CC3)s2)csc1C | – | inconclusive: 25.1 µM [inhibitor, single point] |

| SMILES | max response, negative = inhibition | Potency |
| --- | --- | --- |
| CCc1cccc(C)c1NC(=S)NCc1ccc2[nH]c(C)cc2c1 | – | inconclusive: 39.8 µM [inhibitor, single point] |
| COc1ccc(OCC(=O)N2CCN(C(=O)c3cccc(OC)c3)CC2)cc1 | inactive: 4.68% | – |
| COc1cccc(CNC(=O)CCc2c(C)c3cc4c(C)coc4c(C)c3oc2=O)c1 | inactive: 2.73% | – |
| CCOC(=O)c1cc(CC)sc1NC(=O)c1ccc(N2C(=O)CCC2=O)cc1 | – | inconclusive: 31.6 µM [activator, single point] |
| O=C(Nc1ccc(F)cc1F)c1cc(-c2ccco2)on1 | – | inconclusive: 25.1 µM [inhibitor, single point] |
| COC(=O)c1c(NC(=O)CSc2nnnn2-c2ccc3c(c2)OCO3)sc(C)c1C | – | inconclusive: 39.8 µM [inhibitor, single point] |
| Cc1ccc(-c2c(C#N)c(N)nc3c2CCCCC3)o1 | – | inconclusive: 31.6 µM [inhibitor, single point] |
| Cc1cc(C)c(S(=O)(=O)/N=C2\C=CC(=O)C(Cl)=C2)c(C)c1 | – | inconclusive: 31.6 µM [inhibitor, single point] |
| COc1ccc(N(CC(=O)N2CCN(c3ccccc3F)CC2)S(=O)(=O)c2c(C)n[nH]c2C)cc1 | – | inconclusive: 15.8 µM [activator, partial curve] |
| O=C(NCCN1C(=O)S/C(=C\c2cccs2)C1=O)[C@H](Cc1ccccc1)N1C(=O)c2ccccc2C1=O | – | inconclusive: 39.8 µM [inhibitor, single point] |
| Cc1cccc(Cn2c(=O)c3c(nc4n3CCN4Cc3ccco3)n(C)c2=O)c1 | – | inconclusive: 39.8 µM [activator, single point] |
| CC1(C)Cc2ccccc2/C(=C/C(=O)N2CCCCCC2)N1 | inactive: 0.885% | – |
| CCn1cc(C(=O)NCCc2ccc(Cl)cc2)c(=O)c2cc(S(=O)(=O)N3CCC(C)CC3)ccc21 | inactive: -6.25% | – |
| N=C(N)SCCSC(=N)N | inactive: 0.918% | – |
| Cc1cccc(N2CCN(c3nc4ccc(C)cc4n4cnnc34)CC2C)c1 (centres undefined) | inactive: -3.37% | – |
| COc1ccc(N2CCN(C(=O)CSc3nc4cc(OC)c(OC)cc4cc3C#N)CC2)cc1 | – | inconclusive: 25.1 µM [activator, single point] |
| Cc1ccc(C(=O)Cn2nnc3c(sc4nc5c(c(-c6ccccc6)c43)CCC5)c2=O)cc1 | – | active: 20 µM |
| COc1ccc(N2CCN(C(=O)c3cc(S(=O)(=O)N4CCC(C)CC4)cn3C)CC2)cc1 | – | inconclusive: 31.6 µM [activator, single point] |
| COc1cc(OC)c(OC)cc1/C=N/NC(=O)c1cc(-c2cccn2C)n[nH]1 | – | inconclusive: 39.8 µM [activator, single point] |
| CCCC[C@H]1C[C@@H]1[C@@H]1N(C(C)=O)[C@H](c2cccc(OC)c2)CC12CC2 | – | inconclusive: 31.6 µM [activator, single point] |
